# Source: the BET-seq Pho4 binding data (Le et al. 2018)
# This is one part of the list. The energies were worked out here from pooled read counts, against the library average; single values are noisy.
# Target: T1, Pho4 (S. cerevisiae) (UniProt P07270)
# T1 sequence: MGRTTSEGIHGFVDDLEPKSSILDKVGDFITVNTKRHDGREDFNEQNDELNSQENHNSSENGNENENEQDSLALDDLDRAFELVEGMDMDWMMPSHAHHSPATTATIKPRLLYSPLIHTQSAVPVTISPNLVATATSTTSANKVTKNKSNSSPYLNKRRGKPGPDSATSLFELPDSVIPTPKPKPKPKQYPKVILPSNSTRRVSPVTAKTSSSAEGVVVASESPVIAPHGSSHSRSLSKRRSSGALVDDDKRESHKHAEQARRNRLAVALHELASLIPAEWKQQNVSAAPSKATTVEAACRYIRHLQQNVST
# Experiment: relative binding free energy (BET-seq); higher = weaker binding
# Conditions: reference: library average
row,Sequence,relative binding free energy [kcal/mol]
1,ATGCTCACGTGGAAGG,0.24
2,TTGGGCACGTGGGTCT,-0.26
3,TGCGACACGTGGGAGT,-0.08
4,TAATTCACGTGTCTTG,0.32
5,TGGCGCACGTGAGCGT,0.02
6,TGTTACACGTGATAGT,0.11
7,GTGTACACGTGTATAA,-0.05
8,GTCGGCACGTGTAGGA,0.02
9,ATCGACACGTGGTTGT,0.05
10,AACTGCACGTGGTGTG,-0.11
11,TGTGGCACGTGCTGCA,-0.23
12,GCTGGCACGTGTATTG,-0.03
13,ATAGTCACGTGAATGG,0.31
14,GTGCGCACGTGCTAGG,-0.1
15,TCGGTCACGTGTGTAG,0.19
16,TGCCGCACGTGATTGT,0.12
17,TATTACACGTGGTCGA,0.05
18,GGCTACACGTGGGAGT,0.01
19,AATGGCACGTGGGGTC,-0.14
20,TGTCTCACGTGTGAGA,0.02
21,CTTTTCACGTGCTGGT,0.44
22,TTAAGCACGTGTGTTC,-0.18
23,TGGCGCACGTGTTGCG,-0.06

row,Sequence,relative binding free energy [kcal/mol]
1,TATCACACGTGATGTG,0.11
2,TCATGCACGTGTTGCG,0.02
3,TTCGGCACGTGTGGGC,-0.07
4,CTGGGCACGTGGGTGT,-0.26
5,TTGGCCACGTGTGGGC,-0.05
6,TTACTCACGTGTTTTG,0.29
7,AGTAACACGTGGGGTT,-0.21
8,AGAGTCACGTGATGTT,0.25
9,CTGTGCACGTGATGTC,0.1
10,TGGTCCACGTGCTGTT,-0.06
11,GAGACCACGTGGGTTT,-0.02
12,GTCAGCACGTGTTGCG,0.03
13,TATAGCACGTGTGTCA,-0.1
14,AAGGACACGTGTTGGC,0.1
15,TTCATCACGTGGGTAT,0.17
16,AAGGGCACGTGCGTTA,-0.06
17,CTTCGCACGTGGATGT,-0.04
18,TCGGGCACGTGCGGTT,-0.3
19,AAGGTCACGTGCTTGT,0.12
20,CTGGGCACGTGGATGT,-0.13
21,AAATTCACGTGTCGGT,0.16
22,AAATTCACGTGATTGG,0.33
23,TGCGTCACGTGAGGCG,0.1

row,Sequence,relative binding free energy [kcal/mol]
1,TTTTGCACGTGGCGCG,0
2,TAGTTCACGTGGGCGT,0.26
3,TGGGGCACGTGAGATG,0.13
4,GGGTTCACGTGATAGT,0.54
5,GTTAGCACGTGGAGGA,-0.05
6,GAAGGCACGTGGTGGT,-0.04
7,CATCGCACGTGGGGGG,-0.3
8,TCAAGCACGTGGTGGA,-0.07
9,TGTATCACGTGAGCGC,0.51
10,CGGAACACGTGGGGCG,-0.06
11,TATCGCACGTGGATTT,0.05
12,GATGTCACGTGCAGGG,0.09
13,CGGCGCACGTGTAGGA,-0.01
14,ATTGTCACGTGGCGGC,0
15,AGGTTCACGTGGGCCT,0.19
16,GATTACACGTGGGGAG,0.15
17,AGCGGCACGTGACGGG,-0.02
18,AAGTGCACGTGCTTGT,-0.18
19,TTTCGCACGTGGCATG,-0.03
20,TATCTCACGTGGTGGA,0.24
21,GGTTACACGTGTATGA,0.1
22,GGCTTCACGTGCGTGG,0.14
23,GCCTGCACGTGGGGGT,-0.17

row,Sequence,relative binding free energy [kcal/mol]
1,TGGTTCACGTGCCTGT,0.25
2,TGTTACACGTGCTCTT,0.17
3,TTTGTCACGTGACTTT,0.29
4,TGGGCCACGTGGTAGG,-0.16
5,GGAGGCACGTGTATTG,-0.1
6,TTCTGCACGTGTCGTA,0.08
7,GCGTACACGTGTAGGG,0.18
8,TTGATCACGTGTTGTA,0.05
9,TGATACACGTGGGGAC,-0.08
10,CTGATCACGTGATGGA,0.31
11,AGTAGCACGTGTGCAG,-0.01
12,GGGTTCACGTGGCTGA,0.21
13,GGAGACACGTGTTATG,0
14,GTAGACACGTGTGATA,0.2
15,TTAAACACGTGTGTTA,-0.12
16,TGTAGCACGTGAGGAG,0.17
17,TTTGCCACGTGGTGTG,-0.24
18,GGTGACACGTGTGTTA,0.07
19,TAAATCACGTGATTTT,0.02
20,ATTTACACGTGGGTGC,0.03
21,TCAGGCACGTGCAGGG,-0.17
22,ATTGGCACGTGAAGTG,0
23,CGTATCACGTGCTGGT,0.1

row,Sequence,relative binding free energy [kcal/mol]
1,TTTGTCACGTGAAAAG,0.2
2,AAAGTCACGTGTAGGA,0.07
3,CTGTTCACGTGTAGGT,0.18
4,ATCAGCACGTGGTGTA,-0.21
5,CGGAACACGTGTAGTG,0.09
6,GTTCACACGTGTTAGT,0.22
7,GGTAGCACGTGCCTGT,-0.08
8,GGACACACGTGGTTGG,-0.01
9,GAGTTCACGTGCGTGG,0.18
10,TGAGTCACGTGTCTGT,0.04
11,TTCTTCACGTGTGCTG,0.19
12,CCGGTCACGTGTGTTT,0.12
13,GGGGCCACGTGGTGGC,-0.18
14,GTTGGCACGTGCTGTA,-0.18
15,GCTAGCACGTGGTATT,-0.1
16,TGAGTCACGTGCATGT,-0.03
17,GTTGTCACGTGGACGG,0.11
18,TGATGCACGTGAGGAG,0.21
19,TGGTTCACGTGGCATA,0.2
20,TGTTGCACGTGAAGAA,0.26
21,GTTGTCACGTGTAGAT,0.28
22,GGGCACACGTGTTGAG,0.27
23,TGGGACACGTGCTTTA,-0.05
